Values joined by “and” are separate entries in the source; they are usually repeats but may differ in a detail not shown here. Identical values can stand only once.

This note sets out measurements from publication PMC9414551 (Pharmaceuticals, 2022).

Experiment [1] deals with T1, NR1-2A NMDAR (Homo sapiens, UniProt Q05586+Q12879). Nature of the experiment: FLIPR Ca2+ assay, blocker concentration-response curve. In kind it is cell-based. Further details: host or cells: CHO (CHO-hNR1-h2A), tetracycline-induced expression. Particulars: for Min. (%), minimal % Ca2+ influx in the presence of 100 μM blocker: 10 µM L-glutamate, no Mg2+; for Slope: logistic fit of blocker CRC. The source says: (§1) CHO cell lines stably over-expressing heterodimeric NMDARs composed of human NR1 and 2 subunits were generated by Aptuit, an Evotec company (Verona, Italy). Cell line details are available at ExPASy Cellosaurus database. Research Resource Identifiers (RRIDs) are CVCL_B3TY, CVCL_B3TZ, CVCL_B3U0, and CVCL_B3U1 for CHO-hNR1-h2A, CHO-hNR1-h2B, CHO-hN1-h2C, and CHO-hN1-h2D, respectively. Protein accession numbers were NP_015566, NP_000824, NP_000825, NP_000826, and NP_000827 for NR1, 2A, 2B, 2C, and 2D, respectively. […] The four different heterodimeric NMDARs studied were NR1-2A, NR1-2B, NR1-2C, and NR1-2D. Cell lines were cultured for a maximum of 75 passages.
T1 sequence (Q12879 23-1464, other chains not shown): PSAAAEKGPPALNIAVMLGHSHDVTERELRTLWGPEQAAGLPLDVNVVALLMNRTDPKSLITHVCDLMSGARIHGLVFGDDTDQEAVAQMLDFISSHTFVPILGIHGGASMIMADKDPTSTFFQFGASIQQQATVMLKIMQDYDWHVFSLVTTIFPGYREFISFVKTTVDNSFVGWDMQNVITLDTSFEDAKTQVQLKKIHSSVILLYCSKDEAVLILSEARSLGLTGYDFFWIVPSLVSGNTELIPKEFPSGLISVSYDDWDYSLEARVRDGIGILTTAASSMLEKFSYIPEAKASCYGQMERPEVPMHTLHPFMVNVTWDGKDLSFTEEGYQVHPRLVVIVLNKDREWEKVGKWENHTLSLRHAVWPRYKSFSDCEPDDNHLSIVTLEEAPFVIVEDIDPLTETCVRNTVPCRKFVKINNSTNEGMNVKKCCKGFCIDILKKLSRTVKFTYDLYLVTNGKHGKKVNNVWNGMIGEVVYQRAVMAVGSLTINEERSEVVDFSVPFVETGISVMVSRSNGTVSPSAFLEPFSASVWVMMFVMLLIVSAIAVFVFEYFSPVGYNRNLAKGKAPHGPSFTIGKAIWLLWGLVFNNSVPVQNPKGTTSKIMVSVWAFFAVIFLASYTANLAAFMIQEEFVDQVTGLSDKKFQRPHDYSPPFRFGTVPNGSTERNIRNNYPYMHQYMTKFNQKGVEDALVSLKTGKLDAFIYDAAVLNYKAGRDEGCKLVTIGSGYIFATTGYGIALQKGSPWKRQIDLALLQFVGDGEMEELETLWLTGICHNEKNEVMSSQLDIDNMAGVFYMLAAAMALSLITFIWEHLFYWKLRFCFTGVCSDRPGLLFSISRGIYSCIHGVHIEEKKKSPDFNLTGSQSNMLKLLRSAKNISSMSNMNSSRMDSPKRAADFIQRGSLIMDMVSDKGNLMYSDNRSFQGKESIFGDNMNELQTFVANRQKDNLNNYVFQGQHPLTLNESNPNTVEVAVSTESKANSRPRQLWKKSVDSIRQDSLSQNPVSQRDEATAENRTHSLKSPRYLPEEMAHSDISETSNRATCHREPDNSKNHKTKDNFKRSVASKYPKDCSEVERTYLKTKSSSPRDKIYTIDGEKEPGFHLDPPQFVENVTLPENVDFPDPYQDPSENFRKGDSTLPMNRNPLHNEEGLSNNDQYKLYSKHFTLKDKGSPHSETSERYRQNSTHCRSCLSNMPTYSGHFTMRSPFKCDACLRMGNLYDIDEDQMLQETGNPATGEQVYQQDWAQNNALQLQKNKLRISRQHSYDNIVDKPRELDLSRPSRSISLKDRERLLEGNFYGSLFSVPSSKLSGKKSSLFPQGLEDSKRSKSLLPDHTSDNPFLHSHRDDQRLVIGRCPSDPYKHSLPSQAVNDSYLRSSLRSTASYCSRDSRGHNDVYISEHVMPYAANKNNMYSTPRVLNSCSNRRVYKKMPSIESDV
(§2) FLIPR assay allowed for indirect measurement of intracellular Ca^2+ concentration by means of a Ca^2+-sensitive fluorescent dye (Fluo-4) using the FLIPR instrument (Molecular Devices, San Jose, CA, USA). For these assays, 40 mM stock solutions of the test items were prepared in 100% dimethyl sulfoxide (DMSO), while glutamate and glycine 4 mM stock solutions were prepared in water. 384-well compound plates containing 400 × concentrated test item, glutamate, and glycine were prepared using Labcyte Echo acoustic dispensing system and stored at −20 °C until the day of the experiment.
(§3) Glycine 10 μM was always included in every test item addition.
(§4) Glycine was kept at a constant concentration of 10 μM during experiments.

Experiment [2] addresses T2, NR1-2C NMDAR (Homo sapiens, UniProt Q05586+Q14957). As to the kind of experiment: cell-based. Set-up: host or cells: CHO (CHO-hN1-h2C), tetracycline-induced expression. Particulars: read-out: L-glutamate Max. (maximal asymptote) in the presence of test item.
Experiment [3] deals with T2, NR1-2C NMDAR. Nature of the experiment: Whole-cell manual patch-clamp: current block, onset/offset kinetics and trapping, no Mg2+. The conditions noted are these: −70 mV; for I1 (% Current) at end of test item addition, normalized to I0: 30 s co-application; for I2 (% Current) at end of test item removal, normalized to I0: 50 s after removal; for reduction of L-glutamate/glycine-elicited NR1-2C current: 10 µM L-glutamate + 10 µM glycine, no Mg2+. In general terms: The patch-clamp technique gives a direct electrical read-out from membranes.

In experiment [4] the target is T3, NR1-2D NMDAR (Homo sapiens, UniProt O15399+Q05586). Nature of the experiment: FLIPR Ca2+ assay, blocker concentration-response curve. In kind it is cell-based. The conditions noted are these: for Min. (%), minimal % Ca2+ influx in the presence of 100 μM blocker: 10 µM L-glutamate, no Mg2+; for Slope: logistic fit of blocker CRC. Further details: host or cells: CHO (CHO-hN1-h2D), tetracycline-induced expression.
Source text: as §1, §2, §3, §4

Experiment [5] concerns the target T1, NR1-2A NMDAR. As to the kind of experiment: cell-based. The conditions noted are these: read-out: L-glutamate Max. (maximal asymptote) in the presence of test item. Set-up: host or cells: CHO (CHO-hNR1-h2A), tetracycline-induced expression.
Experiment [6] deals with T2, NR1-2C NMDAR. Nature of the experiment: FLIPR Ca2+ assay, blocker concentration-response curve. Particulars: for Min. (%), minimal % Ca2+ influx in the presence of 100 μM blocker: 10 µM L-glutamate, no Mg2+; for Slope: logistic fit of blocker CRC. Further details: host or cells: CHO (CHO-hN1-h2C), tetracycline-induced expression. In kind it is cell-based.
Source text: as §1, §2, §3, §4

Experiment [7] has as its target T4, NR1-2B NMDAR (Homo sapiens, UniProt Q05586+Q13224). Nature of the experiment: cell-based. Particulars: read-out: L-glutamate Max. (maximal asymptote) in the presence of test item. Further details: host or cells: CHO (CHO-hNR1-h2B), constitutive expression.
Experiment [8] deals with T4, NR1-2B NMDAR. As to the kind of experiment: FLIPR Ca2+ assay, blocker concentration-response curve. Set-up: host or cells: CHO (CHO-hNR1-h2B), constitutive expression. The conditions noted are these: for Min. (%), minimal % Ca2+ influx in the presence of 100 μM blocker: 10 µM L-glutamate, no Mg2+; for Slope: logistic fit of blocker CRC. The experiment is classed as cell-based.
Source text: as §1, §2, §3, §4

Experiment [9] addresses T3, NR1-2D NMDAR. As to the kind of experiment: cell-based. The conditions noted are these: read-out: L-glutamate Max. (maximal asymptote) in the presence of test item. Set-up: host or cells: CHO (CHO-hN1-h2D), tetracycline-induced expression.

T4 sequence (Q13224 27-1484, other chains not shown): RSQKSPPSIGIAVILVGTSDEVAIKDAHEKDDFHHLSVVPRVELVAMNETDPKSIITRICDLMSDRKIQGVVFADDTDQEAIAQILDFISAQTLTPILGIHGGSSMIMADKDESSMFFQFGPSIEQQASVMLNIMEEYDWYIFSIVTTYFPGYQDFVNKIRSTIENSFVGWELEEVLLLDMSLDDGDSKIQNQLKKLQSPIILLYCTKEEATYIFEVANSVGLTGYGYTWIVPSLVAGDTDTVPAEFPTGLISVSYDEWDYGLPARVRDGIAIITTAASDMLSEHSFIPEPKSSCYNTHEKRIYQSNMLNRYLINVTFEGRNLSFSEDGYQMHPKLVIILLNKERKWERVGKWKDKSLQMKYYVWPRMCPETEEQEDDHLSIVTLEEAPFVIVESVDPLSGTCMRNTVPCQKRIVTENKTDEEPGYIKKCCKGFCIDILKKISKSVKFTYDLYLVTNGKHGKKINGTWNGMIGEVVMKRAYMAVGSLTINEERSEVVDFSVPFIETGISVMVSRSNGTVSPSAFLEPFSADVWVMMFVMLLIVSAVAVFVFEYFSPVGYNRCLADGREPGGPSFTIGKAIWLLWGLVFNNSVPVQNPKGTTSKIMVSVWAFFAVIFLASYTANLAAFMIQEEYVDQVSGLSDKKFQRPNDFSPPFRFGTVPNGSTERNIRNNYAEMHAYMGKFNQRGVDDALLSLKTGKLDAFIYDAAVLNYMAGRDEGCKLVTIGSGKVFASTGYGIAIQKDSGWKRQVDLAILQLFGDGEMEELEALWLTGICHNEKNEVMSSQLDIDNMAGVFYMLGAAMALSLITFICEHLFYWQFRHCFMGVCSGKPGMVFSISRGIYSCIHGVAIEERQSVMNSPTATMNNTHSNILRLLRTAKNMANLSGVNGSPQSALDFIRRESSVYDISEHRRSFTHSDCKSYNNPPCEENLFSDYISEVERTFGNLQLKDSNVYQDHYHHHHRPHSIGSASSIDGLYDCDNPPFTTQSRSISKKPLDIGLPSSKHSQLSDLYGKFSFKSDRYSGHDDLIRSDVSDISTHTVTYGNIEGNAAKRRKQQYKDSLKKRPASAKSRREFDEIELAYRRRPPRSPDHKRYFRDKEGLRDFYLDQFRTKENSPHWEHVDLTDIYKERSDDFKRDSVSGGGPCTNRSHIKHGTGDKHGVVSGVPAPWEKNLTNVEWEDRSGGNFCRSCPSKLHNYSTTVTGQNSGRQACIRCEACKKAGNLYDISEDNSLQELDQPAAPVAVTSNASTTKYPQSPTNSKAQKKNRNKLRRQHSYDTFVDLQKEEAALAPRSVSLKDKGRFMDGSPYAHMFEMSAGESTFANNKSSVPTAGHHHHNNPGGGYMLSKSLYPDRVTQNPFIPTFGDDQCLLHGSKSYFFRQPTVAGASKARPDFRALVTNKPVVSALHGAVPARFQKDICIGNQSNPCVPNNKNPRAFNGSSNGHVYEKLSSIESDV
T2 sequence (Q14957 20-1233, other chains not shown): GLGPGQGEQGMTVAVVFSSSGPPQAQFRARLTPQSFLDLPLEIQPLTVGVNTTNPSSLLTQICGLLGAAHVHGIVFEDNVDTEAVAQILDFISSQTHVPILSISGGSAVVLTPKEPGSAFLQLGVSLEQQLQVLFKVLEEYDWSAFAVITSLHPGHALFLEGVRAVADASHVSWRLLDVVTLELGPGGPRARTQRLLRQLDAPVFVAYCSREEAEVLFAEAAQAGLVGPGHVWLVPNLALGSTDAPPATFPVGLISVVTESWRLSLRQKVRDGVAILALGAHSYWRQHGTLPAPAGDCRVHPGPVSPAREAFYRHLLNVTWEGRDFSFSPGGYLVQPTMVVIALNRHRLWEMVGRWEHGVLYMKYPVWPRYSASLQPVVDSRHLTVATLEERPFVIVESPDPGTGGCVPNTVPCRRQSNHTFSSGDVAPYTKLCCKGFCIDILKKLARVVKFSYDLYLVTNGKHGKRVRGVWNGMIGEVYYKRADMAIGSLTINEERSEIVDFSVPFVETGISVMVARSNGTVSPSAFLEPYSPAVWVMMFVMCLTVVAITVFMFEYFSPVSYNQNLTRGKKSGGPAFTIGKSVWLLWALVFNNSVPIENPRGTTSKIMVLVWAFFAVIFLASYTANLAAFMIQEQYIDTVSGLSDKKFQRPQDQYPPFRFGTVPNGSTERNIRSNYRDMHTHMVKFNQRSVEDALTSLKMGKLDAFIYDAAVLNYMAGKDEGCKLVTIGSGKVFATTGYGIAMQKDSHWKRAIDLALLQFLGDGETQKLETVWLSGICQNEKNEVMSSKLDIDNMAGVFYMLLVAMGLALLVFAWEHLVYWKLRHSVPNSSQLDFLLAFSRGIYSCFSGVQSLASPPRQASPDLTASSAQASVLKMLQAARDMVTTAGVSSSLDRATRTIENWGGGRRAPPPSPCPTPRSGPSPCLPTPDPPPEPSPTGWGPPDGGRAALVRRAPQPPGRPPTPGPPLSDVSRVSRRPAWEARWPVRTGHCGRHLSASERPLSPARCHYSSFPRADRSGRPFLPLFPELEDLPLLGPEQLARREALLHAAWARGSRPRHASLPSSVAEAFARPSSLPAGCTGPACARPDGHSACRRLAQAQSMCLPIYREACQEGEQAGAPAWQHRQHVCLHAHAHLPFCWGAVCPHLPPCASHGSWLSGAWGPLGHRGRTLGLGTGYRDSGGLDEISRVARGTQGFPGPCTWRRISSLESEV

With `CNC1(c2ccccc2Cl)CCCCC1=O` (racemic) [(±)-Ketamine, (±)-ketamine], on NR1-2A NMDAR [1], the “Min. (%), minimal % Ca2+ influx in the presence of 100 μM blocker” value (from here on “Min. (%), minimal % Ca2+ influx”) amounted to 23% and the Slope is given as −0.76. Also, on NR1-2C NMDAR [2], the remaining activity at 0.049 µM was determined as 97%, the remaining activity at 0.195 µM was 95%, the remaining activity at 0.781 µM was 80% and the remaining activity at 3.1 µM worked out at 65%. Also, at NR1-2C NMDAR [2], the remaining activity at 12.5 µM came to 20% and the remaining activity at 50 µM was found to be 6.2%. Besides, on NR1-2C NMDAR [3] (test item 1 µM, NR1-2C), the “I1 (% Current) at end of test item addition, normalized to I0” value is 28.7%; the “I2 (% Current) at end of test item removal, normalized to I0” value stood at 95.5%; the “B (initial block)” value was 74 ± 1% and 74.0 ± 1.2%; the “BT (trapped block, BR/B × 100)” value was found to be 86.7 ± 1.8%. On NR1-2C NMDAR [3] (test item 1 µM, NR1-2C), the Tau off came out at 15.2 ± 0.63 s and the Tau on turned out to be 4.7 ± 0.14 s. For the same molecule, the “BR (residual block)” value at NR1-2C NMDAR [3] (test item 1 µM, after wash with glycine alone, NR1-2C) came out at 64.1 ± 1.3. The “reduction of L-glutamate/glycine-elicited NR1-2C current” value at NR1-2C NMDAR [3] (test item 3 μM) was 90% and 89.7 ± 0.6%. At NR1-2C NMDAR [3] (test item 10 μM), the “reduction of L-glutamate/glycine-elicited NR1-2C current” value was 97% and 97.2 ± 0.3%. Moreover, on NR1-2C NMDAR [3] (test item 10 µM, NR1-2C), the “I1 (% Current) at end of test item addition, normalized to I0” value is recorded as 3.6%; the “I2 (% Current) at end of test item removal, normalized to I0” value is on record as 102.9%; the Tau off came to 17.2 ± 3.0 s; the Tau on is 0.99 ± 0.05 s and 0.99 ± 0.050 s. At NR1-2D NMDAR [4], the “Min. (%), minimal % Ca2+ influx” value is given as 12% and the Slope is given as −1.1. Moreover, at NR1-2A NMDAR [5], the remaining activity at 0.049 µM was determined as 100%, the remaining activity at 0.195 µM was 96%, the remaining activity at 0.781 µM turned out to be 97% and the remaining activity at 3.1 µM came to 87%. Moreover, at NR1-2A NMDAR [5], the remaining activity at 12.5 µM was 66% and the remaining activity at 50 µM is 38%. At NR1-2C NMDAR [6], the “Min. (%), minimal % Ca2+ influx” value stood at 8% and the Slope was −0.83. At NR1-2B NMDAR [7], the remaining activity at 0.049 µM was 98%, the remaining activity at 0.195 µM turned out to be 92%, the remaining activity at 0.781 µM turned out to be 80% and the remaining activity at 3.1 µM was 70%. Besides, at NR1-2B NMDAR [7], the remaining activity at 12.5 µM was determined as 44% and the remaining activity at 50 µM was 24%. Also, at NR1-2B NMDAR [8], the “Min. (%), minimal % Ca2+ influx” value is listed as 8% and the Slope was −0.78. Besides, at NR1-2D NMDAR [9], the remaining activity at 0.049 µM came out at 98%, the remaining activity at 0.195 µM was determined as 97%, the remaining activity at 0.781 µM amounted to 93% and the remaining activity at 3.1 µM is 81%. Besides, on NR1-2D NMDAR [9], the remaining activity at 12.5 µM is 45% and the remaining activity at 50 µM was 7.1%.

`C[C@]12N[C@H](Cc3ccccc31)c1ccccc12` [MK-801, dizocilpine]: the “Min. (%), minimal % Ca2+ influx” value is given as 4% at NR1-2A NMDAR [1], 11% on NR1-2D NMDAR [4], 7% on NR1-2C NMDAR [6] and 4% at NR1-2B NMDAR [8]. Further, the Slope was −0.69 on NR1-2A NMDAR [1], −1.2 at NR1-2D NMDAR [4], −1.0 on NR1-2C NMDAR [6] and −0.94 on NR1-2B NMDAR [8].

As for `CC12CC3CC(C)(C1)CC(N)(C3)C2` [Memantine, memantine], the “Min. (%), minimal % Ca2+ influx” value at NR1-2A NMDAR [1] is recorded as 29%; at NR1-2D NMDAR [4], 18%; on NR1-2C NMDAR [6], 13%; on NR1-2B NMDAR [8], 11%. Besides, the Slope on NR1-2A NMDAR [1] was −0.82; on NR1-2D NMDAR [4], −0.88; on NR1-2C NMDAR [6], −0.82; on NR1-2B NMDAR [8], −0.86.
